The supplement of paper PMC8728848
The other results are listed elsewhere or left out.

How the values were obtained:
Assay in all cases: glycan array binding signal (z-score within array); higher = stronger binding
Conditions in all cases: glycan notation: IUPAC condensed, linker removed
Fuc(a1-2)Gal = target: Fuc(a1-2)Gal
In short: (§1)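 Glycan array data were curated from 3228 arrays in the Consortium for Functional Glycomics database and kept only where the protein sequence was available. Glycan names were converted to IUPAC-condensed notation, and columns mapping to the same glycan were averaged. The binding signal is a within-array Z-score, averaged across arrays of the same protein sequence at different concentrations or buffers and across linkers. Negative Z-scores can be read as non-binding.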

Fuc(a1-2)Gal(b1-3)GalNAc = target: Fuc(a1-2)Gal(b1-3)GalNAc
In short: as §1

[1] = target: Fuc(a1-2)Gal(b1-3)GalNAc(a1-3)[Fuc(a1-2)]Gal(b1-4)Glc
In short: as §1

[2] = target: Fuc(a1-2)Gal(b1-3)GalNAc(a1-3)[Fuc(a1-2)]Gal(b1-4)GlcNAc
In short: as §1

[3] = target: Fuc(a1-2)Gal(b1-3)GalNAc(b1-3)Gal
In short: as §1

[4] = target: Fuc(a1-2)Gal(b1-3)GalNAc(b1-3)Gal(a1-4)Gal(b1-4)Glc
In short: as §1

[5] = target: Fuc(a1-2)Gal(b1-3)GalNAc(b1-4)[Neu5Ac(a2-3)]Gal(b1-4)Glc
In short: as §1

Fuc(a1-2)Gal(b1-3)GlcNAc = target: Fuc(a1-2)Gal(b1-3)GlcNAc
In short: as §1

[6] = target: Fuc(a1-2)Gal(b1-3)GlcNAc(b1-2)Man(a1-3)[Fuc(a1-2)Gal(b1-3)GlcNAc(b1-2)Man(a1-6)]Man(b1-4)GlcNAc(b1-4)GlcNAc
In short: as §1

[7] = target: Fuc(a1-2)Gal(b1-3)GlcNAc(b1-2)Man(a1-3)[Fuc(a1-2)Gal(b1-3)GlcNAc(b1-2)Man(a1-6)]Man(b1-4)GlcNAc(b1-4)[Fuc(a1-6)]GlcNAc
In short: as §1

[8] = target: Fuc(a1-2)Gal(b1-3)GlcNAc(b1-3)Gal(b1-4)Glc
In short: as §1

[9] = target: Fuc(a1-2)Gal(b1-3)GlcNAc(b1-3)GalNAc
In short: as §1

[10] = target: Fuc(a1-2)Gal(b1-3)GlcNAc(b1-3)[Fuc(a1-2)Gal(b1-3)GlcNAc(b1-6)]GalNAc
In short: as §1

[11] = target: Fuc(a1-2)Gal(b1-3)GlcNAc(b1-3)[Gal(b1-4)GlcNAc(b1-6)]Gal(b1-4)Glc
In short: as §1

[12] = target: Fuc(a1-2)Gal(b1-3)GlcNAc(b1-3)[Neu5Ac(a2-6)Gal(b1-4)GlcNAc(b1-6)]Gal(b1-4)Glc
In short: as §1

[13] = target: Fuc(a1-2)Gal(b1-3)GlcNAc6S
In short: as §1

[14] = target: Fuc(a1-2)Gal(b1-3)[Fuc(a1-4)]GlcNAc
In short: as §1

[15] = target: Fuc(a1-2)Gal(b1-3)[Fuc(a1-4)]GlcNAc(b1-2)Man(a1-3)[Fuc(a1-2)Gal(b1-3)[Fuc(a1-4)]GlcNAc(b1-2)Man(a1-3)]Man(b1-4)GlcNAc(b1-4)GlcNAc
In short: as §1

[16] = target: Fuc(a1-2)Gal(b1-3)[Fuc(a1-4)]GlcNAc(b1-2)Man(a1-3)[Fuc(a1-2)Gal(b1-3)[Fuc(a1-4)]GlcNAc(b1-2)Man(a1-6)]Man(b1-4)GlcNAc(b1-4)[Fuc(a1-6)]GlcNAc(b1-4)[Fuc(a1-6)]GlcNAc
In short: as §1

[17] = target: Fuc(a1-2)Gal(b1-3)[Fuc(a1-4)]GlcNAc(b1-3)[Fuc(a1-3)[Gal(b1-4)]GlcNAc(b1-6)]Gal(b1-4)Glc
In short: as §1

[18] = target: Fuc(a1-2)Gal(b1-3)[Fuc(a1-4)]GlcNAc(b1-3)[Gal(b1-4)GlcNAc(b1-6)]Gal(b1-4)Glc
In short: as §1

[19] = target: Fuc(a1-2)Gal(b1-4)Fuc(a1-3)]GlcNAc(b1-2)Man(a1-3)[Fuc(a1-2)Gal(b1-4)[Fuc(a1-3)]GlcNAc(b1-2)Man(a1-6)]Man(b1-4)GlcNAc(b1-4)GlcNAc
In short: as §1

Fuc(a1-2)Gal(b1-4)Glc = target: Fuc(a1-2)Gal(b1-4)Glc
In short: as §1

Fuc(a1-2)Gal(b1-4)Glc6S = target: Fuc(a1-2)Gal(b1-4)Glc6S
In short: as §1

Fuc(a1-2)Gal(b1-4)GlcNAc = target: Fuc(a1-2)Gal(b1-4)GlcNAc
In short: as §1

[20] = target: Fuc(a1-2)Gal(b1-4)GlcNAc(b1-2)Man
In short: as §1

[21] = target: Fuc(a1-2)Gal(b1-4)GlcNAc(b1-2)Man(a1-3)[Fuc(a1-2)Gal(b1-4)GlcNAc(b1-2)Man(a1-6)]Man(b1-4)GlcNAc(b1-4)GlcNAc
In short: as §1

[22] = target: Fuc(a1-2)Gal(b1-4)GlcNAc(b1-2)Man(a1-3)[Fuc(a1-2)Gal(b1-4)GlcNAc(b1-2)Man(a1-6)]Man(b1-4)GlcNAc(b1-4)[Fuc(a1-6)]GlcNAc
In short: as §1

[23] = target: Fuc(a1-2)Gal(b1-4)GlcNAc(b1-2)[Fuc(a1-2)Gal(b1-4)GlcNAc(b1-4)]Man(a1-3)[Fuc(a1-2)Gal(b1-4)GlcNAc(b1-2)Man(a1-6)]Man(b1-4)GlcNAc(b1-4)GlcNAc
In short: as §1

[24] = target: Fuc(a1-2)Gal(b1-4)GlcNAc(b1-3)Gal(b1-4)GlcNAc
In short: as §1

[25] = target: Fuc(a1-2)Gal(b1-4)GlcNAc(b1-3)Gal(b1-4)GlcNAc(b1-2)Man(a1-3)[Fuc(a1-2)Gal(b1-4)GlcNAc(b1-3)Gal(b1-4)GlcNAc(b1-2)Man(a1-6)]Man(b1-4)GlcNAc(b1-4)GlcNAc
In short: as §1

[26] = target: Fuc(a1-2)Gal(b1-4)GlcNAc(b1-3)Gal(b1-4)GlcNAc(b1-3)Gal(b1-4)GlcNAc
In short: as §1

[27] = target: Fuc(a1-2)Gal(b1-4)GlcNAc(b1-3)GalNAc
In short: as §1

[28] = target: Fuc(a1-2)Gal(b1-4)GlcNAc(b1-3)[Fuc(a1-2)Gal(b1-4)GlcNAc(b1-6)]GalNAc
In short: as §1

[29] = target: Fuc(a1-2)Gal(b1-4)GlcNAc(b1-3)[Fuc(a1-3)[Gal(b1-4)]GlcNAc(b1-6)]Gal(b1-4)Glc
In short: as §1

[30] = target: Fuc(a1-2)Gal(b1-4)GlcNAc(b1-6)GalNAc
In short: as §1

[31] = target: Fuc(a1-2)Gal(b1-4)GlcNAc6S
In short: as §1

B1: CrataBL (Crataeva tapia), C0HJA4 (protein)
chain: AILTGVPYYILPSTSRAGFSPDNLRKNTSQLSCPLDLITQLRFPRRIGVPVIFTPQNSSLKVVPLSHNLNIHTCSDLWFCPESKIWTVKSSLTHGGSVVTTGGTFRSLGSWFRIERHGDSYKLVHCPRGSTPCRDVGIETVGGGGRRYLAPRDRPLAVRFTRASG
glycan array binding signal (z-score) (Fuc(a1-2)Gal): -0.326
glycan array binding signal (z-score) (Fuc(a1-2)Gal(b1-3)GalNAc): -0.477
glycan array binding signal (z-score) [1]: -0.439
glycan array binding signal (z-score) [2]: -0.334
glycan array binding signal (z-score) [3]: 0.106
glycan array binding signal (z-score) [4]: -0.345
glycan array binding signal (z-score) [5]: -0.406
glycan array binding signal (z-score) (Fuc(a1-2)Gal(b1-3)GlcNAc): -0.275
glycan array binding signal (z-score) [6]: -0.397
glycan array binding signal (z-score) [7]: -0.496
glycan array binding signal (z-score) [8]: -0.296
glycan array binding signal (z-score) [9]: -0.444
glycan array binding signal (z-score) [10]: 0.24
glycan array binding signal (z-score) [11]: -0.399
glycan array binding signal (z-score) [12]: -0.486
glycan array binding signal (z-score) [13]: -0.217
glycan array binding signal (z-score) [14]: -0.53
glycan array binding signal (z-score) [15]: -0.483
glycan array binding signal (z-score) [16]: -0.192
glycan array binding signal (z-score) [17]: -0.526
glycan array binding signal (z-score) [18]: -0.53
glycan array binding signal (z-score) [19]: -0.396
glycan array binding signal (z-score) (Fuc(a1-2)Gal(b1-4)Glc): -0.464
glycan array binding signal (z-score) (Fuc(a1-2)Gal(b1-4)Glc6S): 0.531
glycan array binding signal (z-score) (Fuc(a1-2)Gal(b1-4)GlcNAc): -0.486
glycan array binding signal (z-score) [20]: -0.091
glycan array binding signal (z-score) [21]: -0.459
glycan array binding signal (z-score) [22]: -0.533
glycan array binding signal (z-score) [23]: -0.479
glycan array binding signal (z-score) [24]: -0.497
glycan array binding signal (z-score) [25]: -0.291
glycan array binding signal (z-score) [26]: -0.524
glycan array binding signal (z-score) [27]: -0.311
glycan array binding signal (z-score) [28]: -0.345
glycan array binding signal (z-score) [29]: -0.263
glycan array binding signal (z-score) [30]: 0.232
glycan array binding signal (z-score) [31]: -0.334
